Screen size: about 360,000 compounds; about 6,000 (1.7%) were called active. The inconclusive results got no clear call from the source; some entries with a clear call stand among them for comparison. Calls come from the whole dose curve; as a rule, active = well fitted cell-killing curve with a large enough effect; inconclusive = small, poorly fitted or top-dose-only effect, or effect the other way; inactive = flat fitted curve, though single readings scatter. No potency is given beside an inconclusive call; the fits are too rough.
Assay: qHTS for induction of synthetic lethality in tumor cells producing 2HG: qHTS for the HT-1080-NT fibrosarcoma cell line;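 note: NT is the 2HG producing partner of a matched IDH1 knockdown line; nearly all actives have a fitted effect of over 55% in size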;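 for activity, negative = less viability: 0% = DMSO-treated cells and -100% = media-only wells without cells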
Conditions: HT-1080-NT fibrosarcoma viability, CellTiter-Glo ATP luminescence, 48 h; activity, negative = less viability: at 46.1 µM (top of the series) unless noted
How it was run: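 HT-1080-NT fibrosarcoma cells (2HG-overproducing), 750 cells/well in RPMI with 5% FBS, dosed after 2 h and incubated 48 h at 37C. CellTiter-Glo luminescence normalized to DMSO and no-cell wells; concentration-response curves fitted and classed.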
With COC(=O)[C@@]1(Sc2ccc(C)cc2)CC(=O)N[C@@H]1c1ccc(Br)cc1 the Potency was “inactive”.
With COc1ccc2nc(NC(=O)c3ccc4ncsc4c3)sc2c1 the Potency was inconclusive [cytotoxic, single point].
For Brc1ccc(-c2csc3ncnc(-n4nnc5ccccc54)c23)cc1, the Potency was “inactive”.
For O=C(Nc1ccc(Cl)cn1)c1cccc2ccccc12, the Potency was inconclusive [cytotoxic, single point].
In the case of COc1ccc(-c2nc(N3CCC(C)CC3)[nH]c(=O)c2C#N)cc1, the Potency is reported as “inactive”.
In the case of COC(=O)/C=C1\S/C(=N/NC(=O)c2ccccc2)NC1=O, the Potency is reported as “inactive”.
In the case of CC(C)CC(C(=O)OCC(=O)N1CCN(c2ccccc2)CC1)N1C(=O)c2ccccc2C1=O (stereo not given), the Potency is reported as “inactive”.
For CSc1ccc(CN2CCN(C(=O)c3ccc([N+](=O)[O-])cc3)CC2)cc1, the Potency was “inactive”.
For COc1ccc(/C=N/n2c(SC)nnc2-c2ccccc2)c(OC)c1OC, the Potency was “inactive”.
In the case of CCCCN(CC)CCNC(=S)Nc1ccc2nc(N3CCN(C)CC3)cc(C)c2c1, the Potency is reported as active: 25.9 µM.
With S=c1[nH]nc(-c2ccco2)n1/N=C/C(Cl)=C/c1ccccc1 the Potency was inconclusive [cytotoxic, single point].
For CCc1cccc(C)c1NC(=O)C1CC(=O)N(C2CCCC2)C1 (stereo not given), the activity, negative = less viability was inactive: -4.93% [at 9.24 µM].
With Nc1[nH]c(C(=O)c2ccccc2)c(-c2ccc(Cl)cc2Cl)c1C(=O)NCCc1c[nH]c2ccccc12 the Potency was inconclusive [cytotoxic, single point].
In the case of O=C(c1ccc(CS(=O)c2cccc(Cl)c2)o1)N1CCN(c2ccccn2)CC1 (stereo not given), the Potency is reported as inconclusive [cytotoxic, single point].
For CNC(=O)NC(=O)CN1C(=O)NC2(CCOc3ccccc32)C1=O (stereo not given), the Potency was “inactive”.
For CN(CCOCCOc1ccc2ccccc2c1)Cc1ccccc1, the Potency was inconclusive [cytotoxic, single point].
With O=C(CSc1nc2ccc(NC(=O)CSc3nnnn3Cc3ccccc3)cc2s1)Nc1ccccc1 the Potency was inconclusive [cytotoxic, single point].
In the case of O=C(c1ccccc1)N1CCC(=O)N(C(CO)Cc2ccccc2)CC1 (stereo not given), the Potency is reported as “inactive”.
In the case of CCOc1ccc(OCCC(=O)OCC(=O)N2CCN(S(=O)(=O)c3ccc(Cl)cc3)CC2)cc1, the Potency is reported as inconclusive [cytotoxic, partial curve].
For O=C(COc1ccccc1)N(CCc1ccccc1)c1nc(-c2ccc(F)cc2)cs1, the Potency was “inactive”.
In the case of CC(C)=NOc1cc(NC(=O)CCl)cc([N+](=O)[O-])c1, the Potency is reported as active: 5.8 µM.
For O=S(=O)(CCSc1nc2ccccc2o1)c1nc2ccccc2s1, the Potency was active: 10 µM.
For O=C(CCNc1ccc(F)cc1)c1cccc([N+](=O)[O-])c1, the Potency was inconclusive [cytotoxic, single point].
In the case of CC(C)Nc1nc(NCCN2CCCC2)c2sc(-c3ccccc3)cc2n1, the Potency is reported as inconclusive [cytotoxic, single point].
With CCCC[C@@H]1C[C@H]1[C@@H](NC(=O)c1ccco1)c1ccc(C(=O)OC)cc1 the Potency was inconclusive [rising, single point].
For [N-]=[N+]=CC(=O)C(c1ccccc1)(c1ccccc1)c1ccccc1, the Potency was “inactive”.
With CCc1ccc(NC(=O)Cn2c(=O)c3cccn3c3ccccc32)cc1 the Potency was inconclusive [cytotoxic, single point].
With Cc1cccc(NC(=S)N(CCc2ccncc2)C(C)C)c1C the Potency was inconclusive [rising, single point].
With COc1ccccc1-n1cnc2cc(NCc3ccco3)ccc21 the Potency was active: 5.17 µM.
With Cc1cc(NC(=O)Nc2ccc3c(ccn3C)c2)sn1 the activity, negative = less viability was inconclusive: 1.93%.
With COc1cc(C(=O)Nc2ccc3nc4n(c(=O)c3c2)CCCCC4)cc(OC)c1OC the Potency was inconclusive [cytotoxic, single point].
In the case of Cc1ccccc1S(=O)(=O)NC(=O)C1(C)CCN1C(=O)c1cccc(F)c1 (stereo not given), the Potency is reported as “inactive”.
For COc1ccc(C(=O)Oc2cc(OC)cc(OC)c2C(C)=O)cc1, the Potency was inconclusive [rising, partial curve].
In the case of CCCCOCCCNC(=O)C[C@@H]1C[C@@]2(C(=O)OCC)CCC=C2N(Cc2ccc(Cl)cc2Cl)C1=O, the Potency is reported as inconclusive [cytotoxic, single point].
For CC(C)(C)NC(=O)c1cccc(NC(=O)c2ccco2)c1, the Potency was “inactive”.
In the case of COC(=O)c1sc(N)c(C(=O)OC)c1COC(=O)c1c(C)noc1C, the Potency is reported as active: 7.08 µM.
With COc1cccc(C(=O)N2N=C(c3ccccc3)CC2(O)C(F)(F)F)c1 (stereo not given) the Potency was “inactive”.
For Clc1ccc(SCCN2CCNCC2)cc1, the Potency was “inactive”.
With CC(C)c1cccc(C(C)C)c1Nc1cn[nH]c1 the Potency was inconclusive [cytotoxic, single point].
In the case of COc1cc(CN2CCC(Oc3cc(C(=O)NC4CC4)ccc3OC)CC2)cc(OC)c1, the Potency is reported as “inactive”.
For CCOCCCNC(=O)c1ccc(Cn2c(=S)[nH]c3c([nH]c4ccc(OC)cc43)c2=O)cc1, the Potency was “inactive”.
With O=C1NC2(CCC3(CC2)OCCO3)NN1c1ccccc1 the Potency was active: 6.51 µM.
In the case of Oc1ccc(Br)cc1-c1cc(-c2ccccc2)n[nH]1, the Potency is reported as active: 29.1 µM.
In the case of O=C(CC1CCCCC1)Nc1ccc(-c2ccc3nncn3n2)cc1, the Potency is reported as inconclusive [cytotoxic, partial curve].
In the case of CCOC(=O)c1cc(S(=O)(=O)N2CCCC2)cn1C, the Potency is reported as “inactive”.
In the case of Cc1ccc(-c2nc3ccccn3c2NCc2ccc3c(c2)OCO3)cc1, the Potency is reported as inconclusive [cytotoxic, single point].
With O=C(CCCOc1ccccc1)Nc1nnc(C2CCCO2)s1 (stereo not given) the Potency was inconclusive [rising, single point].
In the case of CCn1nccc1NC(=O)c1csc([C@@H]2O[C@H](CO)[C@H](O)[C@H](O)[C@H]2O)n1, the activity, negative = less viability is reported as inconclusive: 19.2%.
In the case of COc1cccc(C(C)(O)c2nc(-c3ccccc3C)cs2)c1 (stereo not given), the Potency is reported as inconclusive [cytotoxic, single point].
For CCn1nccc1C(=O)Nc1ccc(S(=O)(=O)NC23CC4CC(CC(C4)C2)C3)cc1, the Potency was inconclusive [cytotoxic, single point].
For Cc1ccc2nc(-c3ccc(NC(=O)CN4C(=O)NC(C)(c5ccc(OC(F)F)cc5)C4=O)cc3)sc2c1 (stereo not given), the Potency was inconclusive [cytotoxic, single point].
With Cc1cc2nc(C3CCN(Cc4nnnn4Cc4cccs4)CC3)[nH]c2cc1C the Potency was inconclusive [cytotoxic, partial curve].
For CCn1c(SCC(=O)Nc2ccc3c(c2)c2ccccc2n3CC)nnc1-c1cnccn1, the Potency was inconclusive [cytotoxic, single point].
In the case of COc1ccc(NC(=O)c2ccco2)cc1NC(=O)c1cc2ccccc2o1, the Potency is reported as “inactive”.
In the case of CNC(=O)COC(=O)c1ccccc1C(=O)c1ccc(Cl)c([N+](=O)[O-])c1, the Potency is reported as active: 11.6 µM.
In the case of CCN1CCN(c2ncc3c(n2)CC(c2ccc(OC)c(OC)c2)CC3=O)CC1 (stereo not given), the Potency is reported as active: 11.2 µM.
For CC(C)C[C@@H](CN1CCCC1CN1C(=S)NC[C@@H]1Cc1ccccc1)N1C[C@H](Cc2ccc(O)cc2)N(CCc2ccccc2)C1=S (stereo not given in full), the Potency was inconclusive [cytotoxic, partial curve].
With COc1cc2c(cc1OC)CN(c1ccc(F)cc1[N+](=O)[O-])CC2 the Potency was “inactive”.
In the case of CCn1ncc(Br)c1C(=O)Nc1sc2c(c1C(N)=O)CCC2, the Potency is reported as inconclusive [cytotoxic, partial curve, poor fit].
For Cc1ccc(S(=O)(=O)Nc2c(NC3CCCCC3)c3ccccc3oc2=O)cc1, the Potency was “inactive”.
With O=C1NC(=Nc2ccccc2Cl)S/C1=C\c1cc([N+](=O)[O-])ccc1O the Potency was “inactive”.
For COc1ccc(C2=NOC(Cn3nc(C(=O)NCc4ccc(C)cc4)cc3-c3ccccc3)C2)cc1 (stereo not given), the Potency was “inactive”.
In the case of O=C(c1cccc(S(=O)(=O)N2CCCC2)c1)N1CCN(S(=O)(=O)c2cccc(Cl)c2)CC1, the Potency is reported as “inactive”.
For Cc1ccc(/C=C/C(=O)c2ccccc(=O)c2O)cc1C, the Potency was active: 18.4 µM.
In the case of O=C(Oc1cccc(NC2=NS(=O)(=O)c3ccccc32)c1)c1cccnc1, the Potency is reported as “inactive”.
In the case of CCOc1ccc2c(c1)-c1c(ssc1=S)C(C)(C)N2, the Potency is reported as inconclusive [cytotoxic, single point].
For CCc1nc2c(OCCC3CCCCC3)cccn2c1N(C=O)Cc1ccccc1, the Potency was inconclusive [cytotoxic, single point].
With O=C(CSc1ncnc2ccccc12)c1cccs1 the Potency was inconclusive [cytotoxic, single point].
For CN(Cc1cnccn1)C(=O)CC1C(=O)NCCN1Cc1c(F)cccc1Cl (stereo not given), the Potency was “inactive”.
For CC1CCN(C(=O)C2CCCN(S(=O)(=O)c3cccc4nsnc34)C2)CC1 (stereo not given), the Potency was “inactive”.
For O=C(NCc1cc(Cl)cc(Cl)c1)c1ccc2nc([C@@H]3O[C@H](CO)[C@H](O)[C@H](O)[C@H]3O)[nH]c2c1, the Potency was “inactive”.
With Cc1cc(-c2ccc(C)c(S(=O)(=O)NCCCN3CCN(c4ccccc4F)CC3)c2)on1 the Potency was inconclusive [cytotoxic, single point].
In the case of Cc1cc(C)c(C#N)c(SCSCc2ccccc2)n1, the Potency is reported as inconclusive [rising, partial curve].
With CN(C[C@H](CC1CCCCC1)N(C[C@H](Cc1ccccc1)N(CCc1ccccc1)N=O)N=O)N=O the Potency was “inactive”.
In the case of Cc1ccccc1NS(=O)(=O)c1cc(C(=O)Nc2cccc(N(C)S(C)(=O)=O)c2)ccc1C, the Potency is reported as inconclusive [cytotoxic, single point].

Source: PubChem BioAssay AID686970 (National Center for Advancing Translational Sciences (NCATS), 2013)
Potency is the fitted concentration of half-maximal effect; tags give direction and shape of the fitted curve.
